The results in this text go back to the supplement of paper PMC12645437, “Orthogonal IMiD-Degron Pairs Induce Selective Protein Degradation in Cells” (ACS Chemical Biology, 2025).

This is one part of the list.
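Note: jurkat cells carrying a lentiviral library of mutant zinc finger degrons fused to EGFP plus mCherry, mCherry+ cells FACS sorted, degron abundance counted by next-generation sequencing.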

The assay addresses no compound (DMSO). The assay is described as follows: log2 fold change of degron read counts, EGFP-low vs EGFP+ sorted cells; higher = lower degron-EGFP level without compound (poor expression or instability). The note with it: compound: DMSO control; 18 h.
For the sequence FWCDQCGARFTQKGNLLRHIKL, the “log2 fold change of degron read counts” value is -0.724.

For the sequence FHCSVCGHTFTQKGNLLRHIKL, the “log2 fold change of degron read counts” value is -0.391.

Consider FDCEQCGAWFTQKGNLLRHIKL, for which the “log2 fold change of degron read counts” value is -0.237.

For FCCPICGRGFTQKGNLLRHIKL, the “log2 fold change of degron read counts” value came out at 0.279.

As for FKCSVCGHFFTQKGNLLRHIKL, the “log2 fold change of degron read counts” value was 0.201.

As for FNCSVCGHYFTQKGNLLRHIKL, the “log2 fold change of degron read counts” value came to 0.741.

Regarding LACEICGFGCTQKGNLLRHIKL, the “log2 fold change of degron read counts” value turned out to be 0.0805.

Consider FVCDQCGAKFTQKGNLLRHIKL, for which the “log2 fold change of degron read counts” value is -2.71.

Consider FFCNQCGHQFTQKGNLLRHIKL, for which the “log2 fold change of degron read counts” value is -0.145.

With FLCSVCGHHFTQKGNLLRHIKL, the “log2 fold change of degron read counts” value came out at 0.0624.

For FRCNQCGHGFTQKGNLLRHIKL, the “log2 fold change of degron read counts” value is -0.0388.

Take FMCDICGASFTQKGNLLRHIKL: the “log2 fold change of degron read counts” value was -0.928.

Consider FTCPICGHSFTQKGNLLRHIKL, for which the “log2 fold change of degron read counts” value is -1.22.

Turning to FQCPVCGASFTQKGNLLRHIKL, the “log2 fold change of degron read counts” value is -0.0433.

For FQCPICGHHFTQKGNLLRHIKL, the “log2 fold change of degron read counts” value was found to be 0.473.

Regarding FWCEICGAVFTQKGNLLRHIKL, the “log2 fold change of degron read counts” value was -0.206.

Turning to FWCEQCGAAFTQKGNLLRHIKL, the “log2 fold change of degron read counts” value is -0.765.

In the case of FTCDICGARFTQKGNLLRHIKL, the “log2 fold change of degron read counts” value is -0.556.

On to FWCNQCGATFTQKGNLLRHIKL, for which the “log2 fold change of degron read counts” value stood at 0.365.

FVCNQCGHYFTQKGNLLRHIKL: the “log2 fold change of degron read counts” value is -0.0422.

Take FGCDICGAKFTQKGNLLRHIKL: the “log2 fold change of degron read counts” value was -1.58.

As for LMCEICGFCCTQKGNLLRHIKL, the “log2 fold change of degron read counts” value is 0.000358.

Regarding FACNQCGAMFTQKGNLLRHIKL, the “log2 fold change of degron read counts” value was -0.363.

With FMCSVCGHTFTQKGNLLRHIKL, the “log2 fold change of degron read counts” value was -1.05.

Consider FMCNQCGAAFTQKGNLLRHIKL, for which the “log2 fold change of degron read counts” value was -0.967.

For the sequence LRCEICGFFCTQKGNLLRHIKL, the “log2 fold change of degron read counts” value was found to be 1.3.

Take LSCEICGFNCTQKGNLLRHIKL: the “log2 fold change of degron read counts” value is -0.129.

For FICEVCGACFTQKGNLLRHIKL, the “log2 fold change of degron read counts” value was -0.365.

For FMCEICGAYFTQKGNLLRHIKL, the “log2 fold change of degron read counts” value is -0.537.

With LECEICGFTCTQKGNLLRHIKL, the “log2 fold change of degron read counts” value was -1.03.

Turning to FCCNQCGRAFTQKGNLLRHIKL, the “log2 fold change of degron read counts” value was -0.276.

As to FYCEICGAGFTQKGNLLRHIKL, the “log2 fold change of degron read counts” value was -1.25.

As for FHCPICGRGFTQKGNLLRHIKL, the “log2 fold change of degron read counts” value is -2.01.

Take FWCEICGRKFTQKGNLLRHIKL: the “log2 fold change of degron read counts” value is -0.632.

FQCDICGANFTQKGNLLRHIKL: the “log2 fold change of degron read counts” value was -1.06.

With FRCPICGHSFTQKGNLLRHIKL, the “log2 fold change of degron read counts” value was -0.923.

In the case of FNCNQCGRAFTQKGNLLRHIKL, the “log2 fold change of degron read counts” value was -0.773.

Take FKCEVCGAAFTQKGNLLRHIKL: the “log2 fold change of degron read counts” value is -1.21.

As to FSCNVCGAYFTQKGNLLRHIKL, the “log2 fold change of degron read counts” value is -0.187.

As to FKCDVCGARFTQKGNLLRHIKL, the “log2 fold change of degron read counts” value is -0.959.

Take FQCNQCGAIFTQKGNLLRHIKL: the “log2 fold change of degron read counts” value was -0.353.

As to FKCPQCGANFTQKGNLLRHIKL, the “log2 fold change of degron read counts” value was -1.54.

FNCPVCGADFTQKGNLLRHIKL: the “log2 fold change of degron read counts” value is -0.307.

Turning to FTCEQCGARFTQKGNLLRHIKL, the “log2 fold change of degron read counts” value was -1.95.

In the case of FDCNQCGREFTQKGNLLRHIKL, the “log2 fold change of degron read counts” value was -0.642.

Turning to FECEICGAWFTQKGNLLRHIKL, the “log2 fold change of degron read counts” value was -1.25.

As to FECDICGALFTQKGNLLRHIKL, the “log2 fold change of degron read counts” value was -1.71.

With LSCEICGFACTQKGNLLRHIKL, the “log2 fold change of degron read counts” value is -0.979.

As for FGCNVCGANFTQKGNLLRHIKL, the “log2 fold change of degron read counts” value is -0.636.

Take FQCEICGASFTQKGNLLRHIKL: the “log2 fold change of degron read counts” value was -1.56.
